± gives the standard deviation of the averaged measurements. Laboratory Escherichia coli strains with one amino-acid change in an essential protein, pooled on minimal glucose agar with carbenicillin or gentamicin at twice the control MIC (plus kanamycin and chloramphenicol for the plasmids), 48 h. Fold change of barcode share against drug-free plates; higher = less susceptible. Active = above 20 in both replicates (the paper's putatively resistant). '<' = one read or none on drug, '>' = one read or none on a drug-free plate. Shares are relative, so most strains fall below 1 when a few take over. Listed are strains with at least 15 reads on both drug-free plates, and hits; most hits rest on fewer reference reads. Replicate rank correlation about 0.5. Edits are read from barcodes.
B1: mukB V758D (protein)
chain: MIERGKFRSLTLINWNGFFARTFDLDELVTTLSGGNGAGKSTTMAAFVTALIPDLTLLHFRNTTEAGATSGSRDKGLHGKLKAGVCYSMLDTINSRHQRVVVGVRLQQVAGRDRKVDIKPFAIQGLPMSVQPTQLVTETLNERQARVLPLNELKDKLEAMEGVQFKQFNSITDYHSLMFDLGIIARRLRSASDRSKFYRLIEASLYGGISSAITRSLRDYLLPENSGVRKAFQDMEAALRENRMTLEAIRVTQSDRDLFKHLISEATNYVAADYMRHANERRVHLDKALEFRRELHTSRQQLAAEQYKHVDMARELAEHNGAEGDLEADYQAASDHLNLVQTALRQQEKIERYEADLDELQIRLEEQNEVVAEAIERQQENEARAEAAELEVDELKSQLADYQQALDVQQTRAIQYNQAIAALNRAKELCHLPDLTADCAAEWLETFQAKELEATEKMLSLEQKMSMAQTAHSQFEQAYQLVVAINGPLARNEAWDVARELLREGVDQRHLAEQVQPLRMRLSELEQRLREQQEAERLLADFCKRQGKNFDIDELEALHQELEARIASLSDSVSNAREERMALRQEQEQLQSRIQSLMQRAPVWLAAQNSLNQLSEQCGEEFTSSQDVTEYLQQLLEREREAIVERDEVGARKNAVDEEIERLSQPGGSEDQRLNALAERFGGVLLSEIYDDVSLEDAPYFSALYGPSRHAIVVPDLSQVTEHLEGLTDCPEDLYLIEGDPQSFDDSVFSVDELEKADVVKIADRQWRYSRFPEVPLFGRAARESRIESLHAEREVLSERFATLSFDVQKTQRLHQAFSRFIGSHLAVAFESDPEAEIRQLNSRRVELERALSNHENDNQQQRIQFEQAKEGVTALNRILPRLNLLADDSLADRVDEIRERLDEAQEAARFVQQFGNQLAKLEPIVSVLQSDPEQFEQLKEDYAYSQQMQRDARQQAFALTEVVQRRAHFSYSDSAEMLSGNSDLNEKLRERLEQAEAERTRAREALRGHAAQLSQYNQVLASLKSSYDTKKELLNDLQRELQDIGVRADSGAEERARIRRDELHAQLSNNRSRRNQLEKALTFCEAEMDNLTRKLRKLERDYFEMREQVVTAKAGWCAVMRMVKDNGVERRLHRRELAYLSADDLRSMSDKALGALRLAVADNEHLRDVLRMSEDPKRPERKIQFFVAVYQHLRERIRQDIIRTDDPVEAIEQMEIELSRLTEELTSREQKLAISSRSVANIIRKTIQREQNRIRMLNQGLQNVSFGQVNSVRLNVNVRETHAMLLDVLSEQHEQHQDLFNSNRLTFSEALAKLYQRLNPQIDMGQRTPQTIGEELLDYRNYLEMEVEVNRGSDGWLRAESGALSTGEAIGTGMSILVMVVQSWEDESRRLRGKDISPCRLLFLDEAARLDARSIATLFELCERLQMQLIIAAPENISPEKGTTYKLVRKVFQNTEHVHVVGLRGFAPQLPETLPGTDEAPSQAS
B2: mukB V758P (protein)
chain: MIERGKFRSLTLINWNGFFARTFDLDELVTTLSGGNGAGKSTTMAAFVTALIPDLTLLHFRNTTEAGATSGSRDKGLHGKLKAGVCYSMLDTINSRHQRVVVGVRLQQVAGRDRKVDIKPFAIQGLPMSVQPTQLVTETLNERQARVLPLNELKDKLEAMEGVQFKQFNSITDYHSLMFDLGIIARRLRSASDRSKFYRLIEASLYGGISSAITRSLRDYLLPENSGVRKAFQDMEAALRENRMTLEAIRVTQSDRDLFKHLISEATNYVAADYMRHANERRVHLDKALEFRRELHTSRQQLAAEQYKHVDMARELAEHNGAEGDLEADYQAASDHLNLVQTALRQQEKIERYEADLDELQIRLEEQNEVVAEAIERQQENEARAEAAELEVDELKSQLADYQQALDVQQTRAIQYNQAIAALNRAKELCHLPDLTADCAAEWLETFQAKELEATEKMLSLEQKMSMAQTAHSQFEQAYQLVVAINGPLARNEAWDVARELLREGVDQRHLAEQVQPLRMRLSELEQRLREQQEAERLLADFCKRQGKNFDIDELEALHQELEARIASLSDSVSNAREERMALRQEQEQLQSRIQSLMQRAPVWLAAQNSLNQLSEQCGEEFTSSQDVTEYLQQLLEREREAIVERDEVGARKNAVDEEIERLSQPGGSEDQRLNALAERFGGVLLSEIYDDVSLEDAPYFSALYGPSRHAIVVPDLSQVTEHLEGLTDCPEDLYLIEGDPQSFDDSVFSVDELEKAPVVKIADRQWRYSRFPEVPLFGRAARESRIESLHAEREVLSERFATLSFDVQKTQRLHQAFSRFIGSHLAVAFESDPEAEIRQLNSRRVELERALSNHENDNQQQRIQFEQAKEGVTALNRILPRLNLLADDSLADRVDEIRERLDEAQEAARFVQQFGNQLAKLEPIVSVLQSDPEQFEQLKEDYAYSQQMQRDARQQAFALTEVVQRRAHFSYSDSAEMLSGNSDLNEKLRERLEQAEAERTRAREALRGHAAQLSQYNQVLASLKSSYDTKKELLNDLQRELQDIGVRADSGAEERARIRRDELHAQLSNNRSRRNQLEKALTFCEAEMDNLTRKLRKLERDYFEMREQVVTAKAGWCAVMRMVKDNGVERRLHRRELAYLSADDLRSMSDKALGALRLAVADNEHLRDVLRMSEDPKRPERKIQFFVAVYQHLRERIRQDIIRTDDPVEAIEQMEIELSRLTEELTSREQKLAISSRSVANIIRKTIQREQNRIRMLNQGLQNVSFGQVNSVRLNVNVRETHAMLLDVLSEQHEQHQDLFNSNRLTFSEALAKLYQRLNPQIDMGQRTPQTIGEELLDYRNYLEMEVEVNRGSDGWLRAESGALSTGEAIGTGMSILVMVVQSWEDESRRLRGKDISPCRLLFLDEAARLDARSIATLFELCERLQMQLIIAAPENISPEKGTTYKLVRKVFQNTEHVHVVGLRGFAPQLPETLPGTDEAPSQAS

Each protein was assayed against Escherichia coli (laboratory strain) (assay: barcode share on antibiotic plates over drug-free plates; higher = less susceptible). Conditions: antibiotic: carbenicillin; 2× MIC (3.1 µg/mL).
Protocol: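 A pool of E. coli strains, each edited to carry one amino-acid change in an essential protein, was grown for 48 h on minimal glucose agar with or without antibiotic; strain barcodes were sequenced; mean of two replicates.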

Row | Protein | fold change of barcode share
1 | B1 | 0.229 ± 0.01
2 | B2 | 0.326 ± 0.17

Same assay, conditions: antibiotic: gentamicin; 2× MIC (MIC 0.45 µg/mL)

Row | Protein | fold change of barcode share
3 | B1 | 0.416 ± 0.58
4 | B2 | 0.0248 ± 0.0073

Source: the supplement of paper PMC11876631
